Test results reported in paper PMC4336329 (PLoS ONE, 2015).
Hit rate of the full screen: of about 310,000 compounds, about 2,200 (0.71%) showed an effect of 50% or more. Effects have a minus sign here. The list shows a part of the results.

These molecules were tested against human ether-à-go-go-related gene (hERG) potassium channel (human, UniProt Q12809) (assay: primary screen, population patch clamp on CHO cells stably expressing hERG).
Chain of human ether-à-go-go-related gene (hERG) potassium channel (Q12809 whole entry, looked up): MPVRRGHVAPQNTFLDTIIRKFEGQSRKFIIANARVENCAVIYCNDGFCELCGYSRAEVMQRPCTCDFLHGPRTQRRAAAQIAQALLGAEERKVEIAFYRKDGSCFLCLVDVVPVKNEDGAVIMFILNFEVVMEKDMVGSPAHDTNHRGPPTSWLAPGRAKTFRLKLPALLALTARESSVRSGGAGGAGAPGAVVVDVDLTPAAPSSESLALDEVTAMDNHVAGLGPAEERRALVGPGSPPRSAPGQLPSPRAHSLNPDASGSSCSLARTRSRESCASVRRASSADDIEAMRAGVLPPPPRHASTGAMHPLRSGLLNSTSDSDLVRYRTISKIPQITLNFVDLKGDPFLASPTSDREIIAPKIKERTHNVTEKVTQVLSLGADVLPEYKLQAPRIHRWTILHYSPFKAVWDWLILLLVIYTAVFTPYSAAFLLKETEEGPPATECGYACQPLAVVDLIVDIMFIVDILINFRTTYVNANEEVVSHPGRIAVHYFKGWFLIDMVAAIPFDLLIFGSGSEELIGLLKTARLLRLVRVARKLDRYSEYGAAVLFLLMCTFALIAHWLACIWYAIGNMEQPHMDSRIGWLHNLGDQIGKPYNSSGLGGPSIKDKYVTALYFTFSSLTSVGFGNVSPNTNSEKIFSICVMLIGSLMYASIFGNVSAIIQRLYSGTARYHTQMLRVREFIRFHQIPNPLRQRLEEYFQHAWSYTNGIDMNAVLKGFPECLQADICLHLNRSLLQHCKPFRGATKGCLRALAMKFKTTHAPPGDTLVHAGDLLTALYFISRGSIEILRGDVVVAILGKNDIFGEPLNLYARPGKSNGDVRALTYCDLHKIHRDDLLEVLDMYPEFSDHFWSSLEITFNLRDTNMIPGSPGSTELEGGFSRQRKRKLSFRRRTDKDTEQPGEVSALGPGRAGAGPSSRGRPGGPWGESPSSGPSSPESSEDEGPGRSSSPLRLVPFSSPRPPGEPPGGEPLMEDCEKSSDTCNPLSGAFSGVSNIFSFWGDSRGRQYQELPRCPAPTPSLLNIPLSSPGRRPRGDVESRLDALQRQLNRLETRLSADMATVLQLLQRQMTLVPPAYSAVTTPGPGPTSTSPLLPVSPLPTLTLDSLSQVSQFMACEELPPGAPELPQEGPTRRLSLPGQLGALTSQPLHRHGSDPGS

Compound	hERG current change (%, negative = inhibition) at 1uM [%]
COC(=O)c1cc(NC(=O)CC2CCCC2)cc(C(=O)OC)c1	10.1
Cc1ccc(-c2[nH]c(-c3ccc(Cl)cc3)nc2SCC(=O)NCC2CCCO2)cc1 (stereo not shown)	10.3
Cc1ccccc1NC(=O)CSc1nc2scc(C)c2c(=O)[nH]1	12.8
O=c1c2ccccc2nc(-c2ccco2)n1CCc1ccc(O)cc1	16.4
CCCCNC(=O)c1onc(CSc2ccc(F)c(F)c2)c1C(=O)O	11
O=C(Nc1ccccc1C(=O)O)c1cccc(NC(=O)c2ccc(Br)o2)c1	13.2
CCOc1ccccc1N1CC(C(=O)Nc2ccc3c(c2)OCCO3)CC1=O (stereo not shown)	13.5
CC(=NCCCN1CCOCC1)c1c(O)[nH]c(=O)[nH]c1=O	-0.735
COc1ccc2c(c1)C(=O)c1ccccc1CO2	17.9
CC1(C)CC(=O)C2=C(C1)N(c1ccc(F)cc1)C(=O)C2(O)C(F)(F)F (stereo not shown)	1.75
CN1CCN(C(=O)C2=C[C@H](c3ccc(C(F)(F)F)cc3)C[C@H](OCCCCO)O2)CC1	-2.81
CC12C(=O)N(c3ccccc3C(=O)O)C(=O)C1C1C=CC2C1 (stereo not shown)	5.95
COc1ccc(C(=O)CC(=O)C(=O)Nc2ccccc2C(F)(F)F)cc1	0.748
O=C1CCc2cc(S(=O)(=O)N3CCC(C(=O)NC4CCCC4)CC3)ccc2N1	3.09
O=C(CSCc1ccccc1)N=Nc1c(O)[nH]c2ccccc12	-0.77
CS(=O)(=O)c1nc(-c2ccccc2)cc(-c2ccccc2)c1C#N	7.18
CC(=O)Nc1sc(N/N=C/c2ccccc2F)nc1-c1ccc(C)cc1	8.32
Cc1cc(SCC(=O)N/N=C/c2cccnc2)nc2c(C)cccc12	0.949
COc1ccc(NC(=O)COC(=O)c2ccc(OCc3c(C)noc3C)cc2)cc1OC	9.12
COc1ccc2[nH]c(=O)c(C(c3nnnn3C3CCCCC3)N3CCN(C)CC3)cc2c1 (stereo not shown)	-4.08
C/C(=N/NS(=O)(=O)c1ccc(Cl)cc1)c1cccc(O)c1	5.3
COc1ccc2[nH]c3c(c2c1)CCN[C@H]3C	16.2

Compound	hERG current change (%, negative = inhibition) at 1uM [%]
COc1ccc(CC(CC(=O)O)C(=O)NCc2ccccc2)cc1 (stereo not shown)	27.9
Cc1ccc(CC(=O)N2CCN(c3ccc([N+](=O)[O-])cc3)CC2)cc1	-30.4
O=[N+]([O-])c1cnc(N2CCCCC2)c([N+](=O)[O-])c1	14.1
Clc1cc(Cl)c(OCc2nc(-c3ccccn3)no2)cc1Cl	2.21
CC(=NCC1CCCO1)c1c(O)n(-c2ccccc2C)c(=O)[nH]c1=O (stereo not shown)	13.7
CC(=O)NN1C(=O)/C(=C2/Sc3ccc(Cl)cc3N2C)SC1=S	12.3
CCc1ccc(S(=O)(=O)c2nnn3c2nc(NCCNC(C)=O)c2ccccc23)cc1	11
CCCCn1c(/C=C/c2ccco2)nc2ccccc21	7.23
COC(=O)C1CCN(C(=O)[C@H](C)NC(=O)C2CC(=O)N(c3ccc(F)cc3)C2)CC1 (stereo partly shown)	7.63
Cc1ccc(/C=N/NC(=O)c2ccco2)s1	-2.51
COC(=O)/C=C1\N/C(=N\c2nc(C)cc(C)n2)N(c2ccccc2)C1=O	12.7
Cc1ccc(OCCNC(=O)Cc2ccc(S(=O)(=O)N3CCOCC3)s2)cc1	7.16
CCCCCOc1ccc(C(=O)CCN2CCOCC2)cc1.Cl	9.26
COc1ccc(C(=O)n2cnnc2N)cc1	5.04
Oc1ccc2ccccc2c1Br	12.1
CN(C(=O)C1CCC(=O)N(Cc2ccccc2F)C1)C1CCOCC1 (stereo not shown)	12.3
CNC(=O)/C(C#N)=C/c1c(F)cccc1Cl	9.76
CC(N)C12CC3CC(C1)CC(C(C)N)(C3)C2.Cl (stereo not shown)	8.36
O=C(O)CSc1c(-c2ccccc2)[nH]c2ccccc12	8.08
O=c1[nH]c2cc3c(cc2cc1CN(Cc1cccs1)Cc1nnnn1Cc1ccco1)OCCO3	1.09
Cc1cccc(NC(=O)C2CCCN2C(=O)NC2CCCCC2)c1 (stereo not shown)	12.5
COc1cc(NC(=O)c2cc(C(C)C)on2)c(OC)cc1Cl	8.92

Compound	hERG current change (%, negative = inhibition) at 1uM [%]
O=C(NCC(=O)N(Cc1cccs1)C(C(=O)NC1CCCCC1)c1cccnc1)c1ccco1 (stereo not shown)	18.2
Nc1cccc(C(=O)Nc2ccc(N)cc2Cl)c1	6.12
CCOC(=O)C1=CC[C@@H](c2ccco2)N(S(=O)(=O)c2ccc(C)cc2)[C@H]1C(=O)OCC	11.1
COc1ccc(-c2cc(=O)n(CCC#N)[nH]2)cc1	21.1
CS(=O)(=O)c1cccc(C(=O)NC(c2ccccc2)c2ccccc2)c1	7.5
CCOCCCNC(=O)Cc1ccc(OC)c(OC)c1	7.94
Cc1onc(-c2c(Cl)cccc2Cl)c1C(=O)N[C@@H]1C(=O)N2[C@@H]1SC(C)(C)[C@@H]2C(=O)[O-].O.[Na+]	11
CCN(CC(=O)Nc1ccc2c(c1)OCCO2)C(=O)COc1ccc(C)cc1	10.5
O=C(O)/C=C/c1ccc(S(=O)(=O)Nc2ccccc2C(=O)Nc2ccc(F)cc2)cc1	16.6
CSc1nc(C)c(C(=O)C[n+]2ccccc2C)cc1C#N.[Br-]	-3.09
COCCNC(=O)C(c1ccc(O)cc1)N(C(=O)CCC(=O)Nc1nccs1)c1ccc(C)cc1 (stereo not shown)	17.3
COC(=O)c1ccc(NC2c3ncccc3C(=O)N2Cc2cccs2)cc1 (stereo not shown)	9.95
CCOc1ccc2[nH]c(=O)c(CN(Cc3ccc(F)cc3)C(=O)c3ccco3)cc2c1	-17.8
COc1ccccc1NC(=O)C(=N\O)/C(C)=N/O	11.6
C[C@@H](C(=O)NCc1c(F)cccc1Cl)N1C(=O)N2CCc3c([nH]c4ccccc34)[C@@]2(C)C1=O	4.12
O=C(CC(Sc1n[nH]c(-c2ccccc2)n1)c1ccccc1)NCc1ccccc1 (stereo not shown)	-0.228
CCN(c1ccc(NC(=O)COC(=O)c2ccc3ccccc3n2)cc1)C(C)C	10.3
CC1(OC(=O)C2CCCC2)C(=O)C=C2C=C3CCCN3C=C2C1=O (stereo not shown)	8.08
COc1ccccc1NS(=O)(=O)c1cc(NC(=O)CCc2nc3ccccc3c(=O)[nH]2)ccc1C	4.12
O=c1[nH][nH]c(=O)c2cc([N+](=O)[O-])ccc12	17.4
CCOc1cc(NC(=S)NC)c(OCC)cc1NC(=O)c1ccc(OC)cc1	8.82
CC(Oc1ccc([N+](=O)[O-])cc1)C(=O)NCCCN1CCOCC1 (stereo not shown)	10.3

Compound	hERG current change (%, negative = inhibition) at 1uM [%]
Cc1ccccc1Cn1cc(NC(=O)c2cc(C3CC3)on2)cn1	0.625
Cc1ccc(C(=O)N2CCN(c3cc(=O)[nH]nc3-c3ccccc3)CC2)cc1	-4.07
Cc1ccccc1-c1nc(CN2CCCC(C(=O)NCc3cccnc3)C2)c(C)o1 (stereo not shown)	-40.6
CCc1nnc(NC(=O)CN2CCN(C3CCCCC3)CC2)s1.O=C(O)C(=O)O	6.78
COc1cccc(-c2cc(C(F)(F)F)nc(-n3cc(Cl)cn3)n2)c1	-4.34
OCCc1ccc(O)c(-n2nc3ccccc3n2)c1	0.961
CCCCN(C(=O)c1cc(Cl)nc2ccccc12)c1c(N)n(CCCC)c(=O)[nH]c1=O	9.59
Cc1noc(NS(=O)(=O)c2ccc(NC(=O)c3ccc(OC(C)C)cc3)cc2)c1C	14.8
CCOC(=O)c1c(-c2ccc(OC)cc2)csc1NC(=O)CSc1nnc(C)c(=O)[nH]1	6.11
COCCOCCOCCC(=O)NC1CC2CCC1(C)C2(C)C (stereo not shown)	-1.82
CCN1CCN(C(=O)C2CCC(=O)N(Cc3cccc(C(F)(F)F)c3)C2)CC1 (stereo not shown)	14.2
O=c1[nH]nc(N2CCOCC2)c(=O)[nH]1	11
Cc1cc(C)cc(OCC(=O)Nc2ccc3c(c2)OCCO3)c1	15.5
Cc1ccc(S(=O)(=O)Nc2ccc(O)c(S(=O)(=O)c3ccc(C)cc3)c2)cc1	9.58
COc1cccc(NS(=O)(=O)c2ccc(-n3cccn3)cc2)c1	7.23
COc1ccccc1C(=O)NCCC(=O)N1CCCCCCC1	13.3
COc1ccc(-c2nc(-c3cccc(C)c3)no2)cc1OC	13.8
CC1(C)Cc2sc3c(=O)[nH]c(=S)[nH]c3c2CO1	12.7
CN1CCN(C2Cc3cc(Cl)ccc3Sc3cc(F)ccc32)CC1.CS(=O)(=O)O (stereo not shown)	9.51
COC(=O)c1ccc(C)c(NS(=O)(=O)c2ccc(C)c([N+](=O)[O-])c2)c1	3.14
COc1ccc(CCNC(=O)C(=O)Nc2ccc3c(c2)OCO3)cc1OC	5.95
COc1ccc(-c2cc(C)no2)cc1S(=O)(=O)N1CCN(c2cccc(C)c2)C(C)C1 (stereo not shown)	17.2
